Measurements as given in PubChem BioAssay AID1645887 (National Center for Advancing Translational Sciences (NCATS), 2021).
Values joined by “and” are separate entries in the source; they are usually repeats but may differ in a detail not shown here. Equal values may be shown once. About 40 (0.2%) of roughly 16,000 compounds were called active. Roughly 1% stayed inconclusive and do not appear here. The call rests on the fitted dose curve; in most records, active means well fitted activation curve with a large enough effect; inconclusive means small, poorly fitted or top-dose-only effect, or another doubt; inactive means no such curve, though single readings can be large or run the other way. The list shows a part of the results.

What follows are compounds tested against Rap guanine nucleotide exchange factor 4 (Homo sapiens) (UniProt Q8WZA2) (assay: Validation qHTS for agonist of cAMP-regulated guanine nucleotide exchange factor 4 (EPAC2)). Conditions: EPAC2 Rap1B BODIPY-GDP exchange, fluorescence; activation: active compounds read high.
Procedure, shortened: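 Signal normalized against 6.5 mM cAMP as agonist control. Mix of EPAC2 (100 nM), RAP1B-BODIPY-GDP (250 nM) and GDP (50 uM) was read kinetically at 480/540 nm, every 5 min over 30 min, after 5 min room-temperature incubation with compound.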
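Further: exchange makes BODIPY-GDP fluorescence drop when released from Rap1B; series mostly up to about 150 µM.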
On the % scale 0 is the no-effect control and ±100 the full control effect.

Chain of UniProt Q8WZA2 (Q8WZA2 whole entry, looked up): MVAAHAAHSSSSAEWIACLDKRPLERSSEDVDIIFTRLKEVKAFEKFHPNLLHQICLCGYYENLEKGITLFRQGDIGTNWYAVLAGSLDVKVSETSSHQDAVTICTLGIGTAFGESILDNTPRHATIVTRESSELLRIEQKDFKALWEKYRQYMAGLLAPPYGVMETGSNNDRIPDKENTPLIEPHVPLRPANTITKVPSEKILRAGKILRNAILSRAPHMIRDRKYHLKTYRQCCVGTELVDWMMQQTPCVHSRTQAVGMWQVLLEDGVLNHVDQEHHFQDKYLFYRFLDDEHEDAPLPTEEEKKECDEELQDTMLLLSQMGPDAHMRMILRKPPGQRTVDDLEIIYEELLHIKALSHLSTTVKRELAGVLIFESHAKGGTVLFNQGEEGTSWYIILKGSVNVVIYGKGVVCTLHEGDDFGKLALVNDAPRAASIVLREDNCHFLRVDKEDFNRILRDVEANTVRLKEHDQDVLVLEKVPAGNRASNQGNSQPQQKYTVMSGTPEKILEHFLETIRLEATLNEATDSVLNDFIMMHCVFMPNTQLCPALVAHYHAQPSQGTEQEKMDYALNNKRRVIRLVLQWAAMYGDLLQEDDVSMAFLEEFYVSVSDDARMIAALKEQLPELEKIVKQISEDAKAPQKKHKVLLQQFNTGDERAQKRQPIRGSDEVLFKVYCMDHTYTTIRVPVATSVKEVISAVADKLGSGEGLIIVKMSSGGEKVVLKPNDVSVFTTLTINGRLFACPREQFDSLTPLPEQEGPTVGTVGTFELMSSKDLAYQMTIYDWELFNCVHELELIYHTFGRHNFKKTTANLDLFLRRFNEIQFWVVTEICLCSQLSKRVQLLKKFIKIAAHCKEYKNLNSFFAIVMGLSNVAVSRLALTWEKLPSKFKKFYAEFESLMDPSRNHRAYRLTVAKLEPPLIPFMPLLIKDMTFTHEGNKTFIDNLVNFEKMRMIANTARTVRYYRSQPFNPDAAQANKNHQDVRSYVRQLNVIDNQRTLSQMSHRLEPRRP

activation, inactive:
COC(=O)N1CCC[C@@]2(CCN(c3ncccn3)C2)C1 -5.67%
CCCCCCCCCCCCC(C(=O)O)C(C)C(=O)O (stereo unspecified) 3.23%
Cn1c(=O)c(-c2ccc(Cl)cc2)nc2cnc(N3CCNCC3)nc21 -4.04%
Nc1ccc(S(N)(=O)=O)cc1 -28.5% and 5.77%
Cc1noc(C)c1-c1nc(N(C)Cc2ccco2)c2ccccc2n1 -0.847%
CCCCCCCCCCCCN1[C@@H](CC(=O)O)c2cc(C(F)(F)F)ccc2S1(=O)=O -46.3%
CCOC(=O)N1CCN(Cc2ccc3c(c2)CN(C(=O)c2cc(-c4ccccc4)on2)CCO3)CC1 -4.1%
CC1CCN(CCCC(=O)c2ccc(F)cc2)CC1 -0.441%
N#CCCn1c(=O)c(-c2ccccc2)nc2cnc(Oc3ccccc3)nc21 -17%
Cc1oc(-c2ccccc2NC(=O)C2CCC2)nc1CNC(=O)c1ccc2ccccc2c1 3.25%
Cc1cc(C(=O)Nc2cccc(-c3nc(CNC(=O)c4cnccn4)c(C)o3)c2)c(C)o1 -11.3%
O=c1cc(O)cc(/C=C/c2ccc(O)c(O)c2)o1 -32.9%
O=C(c1csnn1)N1CCC2(CC1)CCN(C(c1ccccc1)c1ccccc1)CC2 -1.4%
CC(CCc1ccc(O)cc1)NCCc1ccc(O)c(O)c1 (stereo unspecified) -13.6% and -31.5%
Cc1cnc(C)c(-c2cccc3c2OC(CNC(=O)c2cc(C)on2)C3)n1 (stereo unspecified) -15.5%
Cc1cn([C@H]2C[C@H](O)[C@@H](CO)O2)c(=O)[nH]c1=O -6.9% and 7.69%
c1ccc(Nc2ncnc3ccc(-c4ccoc4)cc23)cc1 -7.75%
CC(C)NC(=O)N1CCC2(CC1)CCN(S(=O)(=O)c1ccccc1)CC2 -7.09%
CNc1cc(-c2ccccc2C(F)(F)F)ncn1 -1.8%
N[C@@H](Cn1cc(F)c(=O)[nH]c1=O)C(=O)O 1.99%
O=C(O)/C=C/c1ccccc1 1.23%
CC(C)CN1CCC(=O)N(CCC#N)CC1 -20.3%
O=c1c(-c2cccs2)nc2cnc(Nc3ccccc3)nc2n1C[C@H]1CCCO1 -10%
COc1cc(Br)c(C[N+]2(CCOCCC3CCC4CC3C4(C)C)CCOCC2)cc1OC (stereo unspecified) -11.2%
CC1=C(C(=O)OCCN(Cc2ccccc2)c2ccccc2)C(c2cccc([N+](=O)[O-])c2)C(P2(=O)OCC(C)(C)CO2)=C(C)N1 (stereo unspecified) 1.75%
Cc1c(C(=O)NC(C)(C)C)sc2ncnc(NCCN(C)C)c12 4.81%
O=C1CCN(Cc2ccccc2)CCN1[C@H](CO)Cc1ccccc1 -7.47% and -14.7%
C[C@H](N)CCCP(=O)(O)O 1.72%
COc1cccc(Cn2c(=O)c(-c3ccc(F)cc3)nc3cnc(OC)nc32)c1 -5.73%
CCCC(=O)O[C@]1(C(=O)CCl)[C@H](C)C[C@@H]2[C@H]3CCC4=CC(=O)C=C[C@]4(C)[C@@]3(F)C(=O)C[C@@]21C 0.294%
O=C(c1ccco1)N1CCC[C@@]2(CCN(c3ccccn3)C2)C1 -16.5%
CC(O)(C(=O)Nc1ccc(S(=O)(=O)c2ccccc2)cc1)C(F)(F)F (stereo unspecified) -5.27% and 2.57%
O=C(C1CC12CCN(Cc1cccc3cccnc13)CC2)N1CCN(Cc2cccs2)CC1 (stereo unspecified) 0.679%
CC(=O)OC[C@@]12C(=O)[C@@H](O)[C@@H](C)[C@]3(C[C@@H](c4ccoc4)O[C@@H]3OC(C)=O)[C@H]1CCC[C@]21CO1 -13.2%
O=C(OC1Cc2c(O)cc(O)cc2OC1c1cc(O)c(O)c(O)c1-c1c(C2Oc3cc(O)cc(O)c3CC2OC(=O)c2cc(O)c(O)c(O)c2)cc(O)c(O)c1O)c1cc(O)c(O)c(O)c1 (stereo unspecified) -23%
C=C[C@]1(C)C[C@@H](OC(=O)CSCCN(CC)CC)[C@]2(C)[C@H](C)CC[C@]3(CCC(=O)[C@H]32)[C@@H](C)[C@@H]1O -8.38%
CC(C)N(CCC(=O)c1ccc2ccccc2c1)Cc1ccccc1 -19.1% and -25.7%
CC(c1ccon1)N(C)C(=O)c1cnn(-c2ncc3c(n2)-c2ccccc2CC3)c1C1CC1 (stereo unspecified) -17.5%
CCC(C)(C)c1ccc(CC(C)CN2C[C@@H](C)O[C@@H](C)C2)cc1 (stereo partly specified) 3.42%
COC(=O)[C@@H]1CCCN1Cc1ccc2c(c1)CN(Cc1ccc3c(c1)CCCN3C)CCO2 3.95%
CSc1ccc(/C=C2/C(C)=C(CC(=O)O)c3cc(F)ccc32)cc1 -15.8%
Cc1cccc(CNC(=O)c2cnn(-c3nccc(-c4cc(C)sc4C)n3)c2C)n1 -4.33%
COc1cccc(C(=O)N2CCCC(c3nc(SCCN4CCOCC4)ncc3C)C2)c1 (stereo unspecified) -7%
C[N+]1(CC2COC(c3ccccc3)(C3CCCCC3)O2)CCCCC1 (stereo unspecified) -10.6%
Cc1c(C(=O)N(C)CC2CCCN(C)C2)cnn1-c1nccc(-c2ccco2)n1 (stereo unspecified) 1.23%
CC[C@]12CCCN3CCc4c(n(c5ccccc45)[C@@](O)(C(=O)OC)C1)[C@@H]32 -13.8%
c1ccc2c(N3CCOCC3)nc(-c3ccoc3)nc2c1 -26.9%
COCC(=O)Nc1cc(C(=O)N2CCc3sccc3C2)c2c(c1)nc(-c1ccncc1)n2C -17.1%
O=c1c(-c2cccc(Cl)c2)nc2cncnc2n1Cc1ccccc1Cl 6.65%
CCc1noc(C)c1C(=O)N1CCOc2ccc(CN3CCN(c4ccccn4)CC3)cc2C1 -10.3%
O=C(Nc1cccc(N2CCC(NCc3cnn(-c4cccc(F)c4)c3)CC2)c1)c1ccncc1 -8.59%
C=CC(=O)c1ccc(CCCCCC)cc1 -15.8%
COCCn1c(=O)c(-c2cccs2)nc2cnc(Nc3ccccc3)nc21 29.5%
Cc1nc2cnc(N(C)C)nc2n(CCC#N)c1=O 6.85%
COc1ccc(NC(=O)N2CC[C@@]3(CCCN(C(=O)c4cccn4C)C3)C2)cc1 -19.3%
Cc1cc(C)n(-c2ccc(C(=O)NCC3Cc4cc(-c5cnccn5)ccc4O3)cc2)n1 (stereo unspecified) 7.12%
COc1ccc2c(c1)OCC(Cc1ccc(OC)c(OC)c1)C2=O (stereo unspecified) -4.48%
COc1cccc(C(=O)O[C@H]2[C@H](Cc3ccccc3)NS(=O)(=O)[C@H]3C[C@@H]4C=C[C@]23O4)c1 -33%
COc1cc(=O)n2c(c1C(=O)N(C)Cc1cscn1)CCN(Cc1ccc3c(c1)OCCO3)CC2 -0.355%
CNC(=O)[C@@H]1C[C@H](NC2CCCCCCC2)CN1Cc1cccc(OC)c1OC -12.1%
Cc1cc(=O)c(C(=O)NCCCc2ccncc2)c2n1-c1ccccc1SC(c1cccs1)C2 (stereo unspecified) 2.79%
Cn1cccc1C(=O)N1CCC2(CCN(Cc3nccs3)CC2)CC1 -6.89%
O=c1[nH]c(=O)n([C@H]2C[C@H](O)[C@@H](CO)O2)cc1/C=C/Br 0.354%
CN1CCN(c2ncc3nc(-c4cc(F)cc(F)c4)c(=O)n(C4CC4)c3n2)CC1 -9.77%
COc1cccc(CN2C(=O)NC(C)(C3CCN(Cc4cccc(O)c4)CC3)C2=O)c1OC (stereo unspecified) -13.6%
CC(C)Cc1cc(C(=O)NCC2Cc3cc(F)cc(-c4ccccn4)c3O2)no1 (stereo unspecified) -10.9%
Cc1cnc(CNC(=O)c2c3n(c(C)cc2=O)-c2ccccc2SC(c2ccsc2)C3)cn1 (stereo unspecified) -11.6%
CN1CCN(c2nc(-c3ccoc3)nc3ccccc23)CC1 -8.21%
COc1ccccc1C1CN(Cc2c(C)nc3sccn23)Cc2ccccc2O1 (stereo unspecified) 11.7%
CNC[C@@H]1CC[C@@H](N)[C@@H](O[C@H]2[C@H](O)[C@@H](O[C@H]3OC[C@](C)(O)[C@H](NC)[C@H]3O)[C@H](N)C[C@@H]2N)O1 -7.5%
Cc1csc[n+]1CCC1CCCCC1 -13.4%
CCOC(=O)c1cc(-c2ccccc2)nc2ccc(C)cc12 -1.63%
O=c1c(-c2ccc(F)cc2)nc2cnc(N3CCOCC3)nc2n1Cc1ccc(F)cc1 5.59%
CCCCC[C@H](CC(=O)NO)C(=O)N[C@H](C(=O)N1CCC[C@H]1CO)C(C)C -24.6%
Cc1nn(C)cc1CN1CCOc2ccc(C(C)(O)COc3ccccc3)cc2C1 (stereo unspecified) 3.09%
COc1ccccc1CN1CCOc2ccc(CN3CCC(Oc4cccnc4)CC3)cc2C1 -10.9%
Cc1ccc(O)c([C@H](CCN(C(C)C)C(C)C)c2ccccc2)c1 12.6%
Cc1nc(N=Nc2ccc(S(=O)(=O)O)cc2S(=O)(=O)O)c(COP(=O)(O)O)c(C=O)c1O -16.3% and 4.24% and -28.5%
COc1cccc(Cn2c(=O)c(-c3ccc(F)cc3)nc3cnc(N4CCOCC4)nc32)c1 1.98%
COc1ccc2[nH]cc(CCNc3ncncc3-c3ccc4c(c3)OCO4)c2c1 -13.2%
C=CCc1ccccc1OCC(O)CNC(C)C (stereo unspecified) -5.01% and -9.93% and -2.71%
